About 550 (1.1%) of roughly 48,000 compounds were called active. Inconclusive results (about 4%) are left out. No stated cut-off is given here; in the data, active means potency below about 15 µM; inconclusive means mostly about 16 µM to 33 µM; inactive means weaker than that. The list shows a part of the results.
Target: Lysosomal acid glucosylceramidase (Homo sapiens) (UniProt P04062)
Test: Glucocerebrosidase;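 further: the screen sought inhibitors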
Settings: purified enzyme, resorufin glucoside fluorescence (screen aimed at inhibitors), 20 min
Outline: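 Wild-type enzyme at 0.2 nM final in 50mM citric acid/KH2PO4, 10mM sodium taurocholate, 0.01% tween-20, pH 5.9, with resorufin beta-D-glucopyranoside at 30 uM final. Compounds titrated, 20 min at RT, red fluorescence read; AC50 from titration.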
Potency means the concentration at half of the fitted maximal effect.

Chain of UniProt P04062 (P04062 whole entry, looked up): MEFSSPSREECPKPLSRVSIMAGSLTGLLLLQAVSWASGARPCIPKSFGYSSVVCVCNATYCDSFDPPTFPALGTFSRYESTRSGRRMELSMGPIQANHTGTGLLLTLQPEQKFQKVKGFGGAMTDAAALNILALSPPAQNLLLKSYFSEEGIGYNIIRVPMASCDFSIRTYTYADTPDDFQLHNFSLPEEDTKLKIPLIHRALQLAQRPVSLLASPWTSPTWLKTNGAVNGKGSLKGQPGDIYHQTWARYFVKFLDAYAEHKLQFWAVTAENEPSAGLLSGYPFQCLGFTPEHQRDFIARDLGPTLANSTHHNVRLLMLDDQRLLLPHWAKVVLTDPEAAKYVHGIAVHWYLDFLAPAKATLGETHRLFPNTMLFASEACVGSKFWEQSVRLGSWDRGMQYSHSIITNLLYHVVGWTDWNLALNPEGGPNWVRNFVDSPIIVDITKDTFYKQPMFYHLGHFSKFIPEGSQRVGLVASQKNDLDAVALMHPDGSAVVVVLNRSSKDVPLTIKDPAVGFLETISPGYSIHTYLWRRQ

Compound | Potency
Cc1ccccc1Cn1c(=O)n(CCCC(=O)NCc2ccco2)c(=O)c2ccccc21 | inactive: > 76.9 µM
COc1ccc(NC(=O)CSc2ncn(-c3ccccc3)n2)cc1Cl | inactive: > 76.9 µM
CCNC(=O)CC1C(=O)N(c2ccc(OC)cc2)C(=O)N1Cc1ccc(OC)cc1 (configuration not stated) | inactive: > 76.9 µM
CCOC(=O)C1C(=O)Nc2nc(C)nn2C1c1ccccc1 (configuration not stated) | inactive: > 76.9 µM
Cn1c(=O)c2c(nc(SCCN3CCOCC3)n2Cc2ccccc2)n(C)c1=O | inactive
CCCn1c(N)c(C(=O)CSc2nnc(Cc3ccccc3)o2)c(=O)n(C)c1=O | inactive: > 76.9 µM
CCCNC(=O)N1CCN(S(=O)(=O)c2ccc(C)cc2)CC1 | inactive: > 76.9 µM
CCCCc1noc2c1/C(=N\O)CC(c1ccccc1)C2 (configuration not stated) | inactive: > 76.9 µM
Cc1cccc(-n2c(N)cc(=O)nc2SCC(=O)Nc2cc(C)on2)c1 | inactive: > 76.9 µM
CCOc1ncccc1C(=O)OCc1cc(=O)n2c(n1)sc1ccccc12 | inactive: > 76.9 µM
COc1ccc(-n2ccnc2SCC(=O)Nc2ccc(OC)cc2OC)cc1 | inactive: > 76.9 µM
O=C(CSc1nc(-c2cccs2)cc(C(F)(F)F)n1)NCCCn1ccnc1 | inactive: > 76.9 µM
COCCn1c(C)cc(C(=O)COC(=O)C23CC4CC(CC(O)(C4)C2)C3)c1C | inactive: > 76.9 µM
C=CCN=c1sc(C(=O)OC)cc(=O)n1CC=C | inactive: > 76.9 µM
COCCCN1C(=O)C(=O)/C(=C(/O)c2ccc(OC)cc2C)C1c1cccnc1 (configuration not stated) | inactive: > 76.9 µM
CCN(CC)CCn1c(SCC(=O)NCc2ccco2)nc2c(sc3ccccc32)c1=O | inactive: > 76.9 µM
CS(=O)(=O)N(CC(=O)Nc1cccnc1)c1ccc2c(c1)OCCO2 | inactive: > 76.9 µM
O=c1[nH]c(N2CCc3ccccc3C2)nc2c1CCCC2 | active: 4.56 µM
CC(NC(=O)c1ccco1)C(=O)Nc1nc(-c2ccccn2)cs1 (configuration not stated) | inactive: > 76.9 µM

Compound | Potency
Cn1c(=O)n(CCc2ccccc2)c(=O)c2c1nc1n2CCN1c1ccccc1 | inactive: > 76.9 µM
COc1cc(C(=O)NCC(c2cccnc2)N2CCN(C)CC2)cc(OC)c1OC (configuration not stated) | inactive: > 76.9 µM
N#Cc1cccc(NC(=O)N2CCC(c3nc4c(nnn4Cc4cccc(Cl)c4)c(=O)[nH]3)CC2)c1 | inactive
CC(=O)c1nnn(-c2nc(N3CCCC3)nc(N(c3ccccc3)c3ccccc3)n2)c1C | inactive: > 76.9 µM
O=c1nc(NCc2ccco2)sc2ncccc12 | inactive: > 76.9 µM
COc1ccc(-n2c(=O)c3ccccc3n(CC(=O)NC3CCCCC3)c2=O)c(OC)c1 | inactive: > 76.9 µM
CCCn1c(C(O)c2cc(OC)ccc2OC)nc2ccccc21 (configuration not stated) | inactive: > 76.9 µM
Cc1ccc(OCC(=O)Nc2ccc3c(c2)nc(CCN2CCOCC2)n3C)cc1 | inactive: > 76.9 µM
Cc1ccc(C(=O)Nc2c3c(nn2C(C)(C)C)CS(=O)(=O)C3)cc1C | inactive: > 76.9 µM
COc1ccc(NC(=O)CSC2=NC(=O)CC(C)=N2)cc1 | inactive: > 76.9 µM
CCOc1ccc(Cl)cc1CSc1n[nH]c(CC)n1 | inactive: > 76.9 µM
COCC(=O)NC(c1ccccc1)c1ccccc1 | inactive: > 76.9 µM
Cc1cccc(CC2CC(=O)N(c3ccccc3)C2=O)c1 (configuration not stated) | inactive: > 76.9 µM
COC(=O)c1cccc(NC(=O)Cc2coc3cc(OC)ccc23)c1 | inactive: > 76.9 µM
O=C(CCCCCn1c(SCC(=O)c2ccccc2)nc2ccccc2c1=O)NCc1ccco1 | inactive: > 76.9 µM
CN(C)C(C(=O)NC1CCCCC1)c1ccc(Cl)cc1 (configuration not stated) | inactive: > 76.9 µM
CC(C)n1c(N2CCN(CC(=O)Nc3ccc4c(c3)OCCO4)CC2)nc2ccccc21 | inactive: > 76.9 µM
COC(=O)c1sccc1NC(=O)CN1CCN(c2ccc(F)cc2)CC1 | inactive: > 76.9 µM
CCOC(=O)C1=C(C)N(CCO)C(=O)NC1c1ccccc1 (configuration not stated) | inactive: > 76.9 µM

Compound | Potency
COc1ccccc1NS(=O)(=O)c1ccc(NC(=O)c2nc3ncccn3n2)cc1 | inactive: > 76.9 µM
COc1ccccc1N1CCN(CC(=O)Nc2c(C)n[nH]c2C)CC1 | inactive: > 76.9 µM
CCN(CC)CCN1C(=O)C(=O)/C(=C(/O)c2ccncc2)C1c1ccccc1 (configuration not stated) | inactive: > 76.9 µM
CCC(=O)c1ccc(OC(=O)c2ccc(Br)o2)cc1 | inactive: > 76.9 µM
CC(NC(=O)c1ccc(S(=O)(=O)N(C)C)cc1)c1ccccc1 (configuration not stated) | inactive: > 76.9 µM
Cc1ccc(N2CC(C(=O)N3CCc4ccccc43)CC2=O)cc1 (configuration not stated) | inactive: > 76.9 µM
Cc1cc(NC(=O)c2noc3c2CCCC3)no1 | inactive: > 76.9 µM
Cc1ccc(-c2nc(CSCC(=O)N3CCCC3)c(C)o2)cc1 | inactive: > 76.9 µM
Cc1ccc(OCCCC(=O)N2CCOCC2)c(C)c1 | inactive: > 76.9 µM
Cc1sc2nc(CN(CCc3ccccc3)C(=O)c3ccco3)[nH]c(=O)c2c1C | inactive: > 76.9 µM
CCOC(=O)C1=C(N)OC2=C(C(=O)CCC2)C1c1ccco1 (configuration not stated) | inactive: > 76.9 µM
O=C(NCc1ccccn1)c1ccc(Cn2cc(Br)cn2)o1 | inactive: > 76.9 µM
c1ccc(CSc2ncccn2)cc1 | inactive: > 76.9 µM
O=C1c2cccnc2C(=O)N1c1cccc(-c2nc3ccccc3o2)c1 | inactive: > 76.9 µM
Cc1cccc(C)c1NC(=O)CNc1ccccc1 | inactive: > 76.9 µM
COc1cc2c3c(c1)C1(C(=O)N3C(C)(C)C=C2C)C(C#N)=C(N)Oc2cc(C)oc(=O)c21 (configuration not stated) | inactive: > 76.9 µM
O=C(Nc1cccnc1)c1scc2c1OCCO2 | inactive: > 76.9 µM
CS(=O)(=O)N(CC(=O)N1CCCCC1)c1ccc2c(c1)OCO2 | inactive: > 76.9 µM
COc1ccccc1-c1nnc(SCC(=O)Nc2c(Cl)cccc2Cl)o1 | inactive: > 76.9 µM
